# Experimental data reported in PubChem BioAssay AID1240 (Sanford-Burnham Center for Chemical Genomics, 2008).
# Hit rate of the full screen: of about 50,000 compounds, about 800 (1.6%) showed an effect of 50% or more. The list shows a part of the results.
# Target: Bcl-2-like protein 10 (Homo sapiens) (UniProt Q9HD36)
# Test: Phenotype converters, Bcl-B/TR3 peptide binding displacement, primary biochemical FP (AID 1240);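 also: 0% = Bcl-B with tracer peptide and DMSO and 100% = tracer peptide lacking Bcl-B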
# Conditions: GST-Bcl-B / FITC-TR3 peptide fluorescence polarization; stronger effect = higher value; compound at 3.75 mg/L
# UniProt Q9HD36, sequence (Q9HD36 whole entry, looked up): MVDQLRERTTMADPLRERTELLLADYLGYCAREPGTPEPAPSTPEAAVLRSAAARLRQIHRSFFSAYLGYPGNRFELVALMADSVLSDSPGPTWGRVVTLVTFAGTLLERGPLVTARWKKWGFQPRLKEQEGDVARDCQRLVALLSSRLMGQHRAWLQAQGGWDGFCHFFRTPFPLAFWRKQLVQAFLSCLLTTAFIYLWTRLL
row,SMILES,displacement
1,N#Cc1c(N)[nH]c(=S)c(C#N)c1-c1cccc(F)c1,0.6%
2,Cc1cc(OCC(=O)Nc2ccccc2[N+](=O)[O-])cc(C)c1Cl,7%
3,C=CCN1C(=O)/C(=C\c2ccc(OC)c3ccccc23)C(=O)NC1=S,-7.2%
4,COc1ccccc1C(=O)NNC(=O)c1ccc([N+](=O)[O-])cc1,3.3%
5,Cc1cc(C)cc(NC(=O)COc2ccc(Cl)cc2C)c1,2.3%
6,COc1ccc(C2/C(=C(\O)c3ccc(C)cc3)C(=O)C(=O)N2c2ccc(O)cc2)cc1 (centres undefined),5.7%
7,O=C1c2c(Cl)c(Cl)c(Cl)c(Cl)c2C(=O)N1c1ncccn1,8.9%
8,c1ccc2c(c1)[nH]c1nc(SCCCN3CCOCC3)nnc12,-2.1%
9,Clc1ccc(OCCn2ccnc2)cc1,14.8%
10,CC1=NNC(=O)C1CCC(=O)N/N=C(\C)c1ccc(Br)cc1 (centres undefined),-11.1%
11,CCOC(=O)C1=C(C)N(CCOC)C(=O)/C1=C\c1ccccc1F,5.4%
12,CCOC(=O)c1cnc(-c2ccccc2)nc1Nc1ccccc1,-10.3%
13,CCN1CCN(Cc2c(O)ccc3c(=O)c(-c4ccccc4OC)c(C(F)(F)F)oc23)CC1,2.1%
14,Cc1ccccc1OCC(=O)Nc1cccc(-c2cc3ccccc3oc2=O)c1,1.7%
15,CC1=C(C(=O)Nc2ccccc2)C(c2cccs2)n2c(s/c(=C\c3cccs3)c2=O)=N1 (centres undefined),14.9%
16,COc1ccccc1N1C(=O)c2ccc(C(=O)Nc3ccc(Br)cc3)cc2C1=O,7.4%
17,Cc1cc(C(=O)c2ccc(Br)cc2)ccc1S(=O)(=O)Nc1cccc([N+](=O)[O-])c1,-11.9%
18,CCOC(=O)c1ccc(Nc2ncnc3ccc(C)cc23)cc1,-2%
19,CN1c2ccccc2C(C)(C)C12C=Nc1c(ccc3cc4ccccc4cc13)O2 (centres undefined),10.5%
20,CCCCOC(=O)c1ccc(NCCC(=O)c2cccc([N+](=O)[O-])c2)cc1,-8%
21,Cc1sc(NC(=O)c2ccccc2C(=O)O)c(C#N)c1C,-8.5%
22,Cc1ccc(C)c(NC(=O)CN(c2ccc(C)c(Cl)c2)S(C)(=O)=O)c1,1%

row,SMILES,displacement
1,Cc1ccc(S(=O)(=O)NC2CCCCCCC2)cc1,-3.4%
2,COc1ccccc1CNC(=O)/C=C/c1cccc([N+](=O)[O-])c1,0%
3,CC(C)c1cc(C(C)C)c(S(=O)(=O)N2CCNCC2)c(C(C)C)c1,11.6%
4,Cc1cc(OCC(=O)O)cc(C)c1Cl,5.2%
5,O=C(O)c1ccc(COc2ccc3ccc(=O)oc3c2)cc1,10.5%
6,O=C(Nc1ncc(Cc2ccc(F)cc2)s1)c1ccccc1Br,11.8%
7,CCOC(=O)c1ccc(-c2ccc(/C=c3\sc4nc5ccccc5n4c3=O)o2)cc1,9.1%
8,O=C(/C=C/c1ccc(F)cc1)Nc1cccc2cccnc12,16.9%
9,COc1ccc(C2Nc3ccccc3NC3=C2C(=O)CC(c2ccccc2)C3)c(OC)c1 (centres undefined),5.9%
10,Oc1cc(N=C/C=C/c2ccc(Cl)cc2)ccc1-c1nc2ccccc2s1,4.7%
11,CCOc1ccc(NC(=O)CSc2nc3ccccc3s2)cc1,-10.1%
12,COc1cc(S(=O)(=O)N2CCC(C)CC2)c(OC)cc1Cl,-7.4%
13,O=[N+]([O-])c1ccc2c(c1)S(=O)(=O)N=C2Nc1cccnc1,11.6%
14,COc1ccc(C2/C(=C(/O)c3ccc(C)cc3)C(=O)C(=O)N2CCCn2ccnc2)c(OC)c1 (centres undefined),2.9%
15,O=C(Nc1ccc(Cc2ccncc2)cc1)c1ccc2ccccc2n1,-3.7%
16,CC12C(=O)C(C)(C(c3ccccc3)=C1c1ccccc1)C1C(=O)N(c3cccc(C(F)(F)F)c3)C(=O)C12 (centres undefined),2.6%
17,CCc1ccccc1NC(=O)COc1cccc(C)c1,2.1%
18,O=C(Nc1ccccc1F)c1cncc(Br)c1,3.9%
19,S=C(NCC1CCCO1)Nc1ccccc1 (centres undefined),7.4%
20,O=c1cccc(-c2ccc(Br)cc2)o1,18.9%
21,CCCC12C(=O)C(C)(C(c3ccccc3)=C1c1ccccc1)C1C(=O)N(c3ccccc3Cl)C(=O)C12 (centres undefined),12.1%
22,O=S1(=O)CCC(NC(=S)N/N=C/c2cccc3ccccc23)C1 (centres undefined),5.1%

row,SMILES,displacement
1,COc1ccc(OC)c(C2/C(=C(\O)c3ccccc3)C(=O)C(=O)N2CCCC(=O)O)c1 (centres undefined),-7.1%
2,O=C1CC(N2CCN(c3ccc([N+](=O)[O-])cc3)CC2)C(=O)N1c1ccc(Br)cc1 (centres undefined),25.5%
3,COc1ccc(CNS(=O)(=O)c2ccc(OC)cc2)cc1,9.2%
4,O=C(O)c1cccc(-c2ccc(C=C3C(=O)c4ccccc4C3=O)o2)c1,-2.7%
5,CCOC(=O)/C(C(=O)Nc1ccc(Cl)cc1Cl)=C1\NC(C)(C)Cc2ccccc21,7.9%
6,COc1ccc(C2=C/C(=C\c3cccnc3)C(=O)O2)cc1,8.2%
7,Cc1ccc(N2C(=O)NC(=O)/C(=C\c3ccc(N(C)C)c(Br)c3)C2=O)cc1,10.1%
8,Cc1ccc2ccc(S(=O)(=O)NCc3cccnc3)cc2c1,6.7%
9,Cc1n[nH]c(=S)n(/N=C/c2ccccn2)c1=O,-12.6%
10,Cn1nnnc1SCc1c(Cl)cccc1Cl,1.6%
11,CCOC(=O)C1=C(C)N=c2s/c(=C\c3ccccc3)c(=O)n2C1c1ccc(F)cc1 (centres undefined),2.9%
12,Cc1ccc(-n2[nH]c(C)c(C=Nc3ccc(S(=O)(=O)Nc4nccs4)cc3)c2=O)cc1,4.6%
13,CC1=C(C(=O)OCC2CCCO2)C(c2cccc(C(F)(F)F)c2)C2=C(CC(C)(C)CC2=O)N1 (centres undefined),1.1%
14,CCOc1ccc(/C=N\NC(=O)c2ccc(Br)cc2)c(O)c1,6.9%
15,FC(F)(F)c1ccccc1C=NN1CCN(c2ccccn2)CC1,-3.3%
16,O=c1c(C=NCC2CCCO2)c(C(F)(F)F)[nH]n1-c1nc2ccccc2s1 (centres undefined),-10.9%
17,CCOC(=O)c1ccc(NC(=S)NC(NC(=O)c2ccc(C)cc2)C(Cl)(Cl)Cl)cc1 (centres undefined),-23.6%
18,Cn1cc(/C=C/C(=O)c2ccc(Cl)cc2)c2ccccc21,20%
19,c1cncc(CN2CCN(Cc3c[nH]c4ccccc34)CC2)c1,-15.8%
20,C/C(=N\N=C1\NC(=O)C(CC(=O)Nc2ccc(C)c(Cl)c2)S1)C(C)C (centres undefined),7.8%
21,COc1ccc(/C=C2/C(=O)NN(c3ccc(C)c(C)c3)C2=O)cc1OC,2%
22,Cc1ccc(C(=O)N(C)c2ccccc2)cc1[N+](=O)[O-],10.7%

row,SMILES,displacement
1,COc1cc(/C=N/n2cnnc2)ccc1Oc1ccc(C(F)(F)F)cc1[N+](=O)[O-],12.2%
2,COc1ccccc1N1CCN(C(=O)COc2ccc(Br)cc2)CC1,4.1%
3,CC1(C)CC(=O)C2=C(C1)c1c(ccc3ccccc13)NC2c1ccc(N2CCOCC2)cc1 (centres undefined),9.1%
4,CSc1ccc(CN2CCN(C(=O)c3ccco3)CC2)cc1,-13.1%
5,O=C(Nc1ccc2oc(-c3cccnc3)nc2c1)c1cc(I)ccc1Cl,-5.8%
6,COc1cccc(OC)c1C(=O)Nc1cc(Cl)c(Cl)cc1Cl,-7.1%
7,O=C(Nc1ccc(Cl)c(Cl)c1)Nn1cnnc1,12.7%
8,O=C1CC(c2ccccc2)CC2=C1C(c1ccc(O)cc1)Nc1ccc(C(=O)c3ccccc3)cc1N2 (centres undefined),-1.7%
9,COc1cc(/C=C2/SC(=S)NC2=O)cc(Br)c1OCc1ccccc1F,-17.3%
10,O=C1CSC(c2ccc3c(c2)OCO3)N1c1ccc(Cl)c(Cl)c1 (centres undefined),-1.5%
11,COc1ccc(Cl)cc1C(=O)Nc1ccc(Nc2ccccc2)cc1,12.9%
12,O=C1C=C(c2ccccc2)CC(c2cccs2)C1n1cnc([N+](=O)[O-])c1 (centres undefined),-4.9%
13,CN(C)CCCNC(=O)CN(c1cccc(Cl)c1)S(=O)(=O)c1ccccc1,0.4%
14,CCOc1ccc2oc(-c3ccccc3)c(C(=O)N(C)C)c2c1,6.9%
15,O=C1NC(=O)N(c2ccc(Cl)cc2)C(=O)/C1=C\c1ccc(N2CCCC2)cc1,71.4%
16,COc1ccc(C=C2C(=O)N(C)C(=O)N(C)C2=O)cc1OC,0.6%
17,CCOc1ccc2nc(SCC(=O)OC)[nH]c2c1,-12%
18,Cc1ccc(-c2cc(NC(=O)COc3ccc(Cl)cc3Cl)n[nH]2)cc1,8.3%
19,O=C1CC(NCCc2ccc(Cl)cc2)C(=O)N1c1ccc(Br)cc1 (centres undefined),-6.5%
20,COc1ccc(C(=O)Nc2cc(C)cc(C)c2)c(OC)c1,15.4%
21,COc1cc(C=O)c(Br)cc1OCc1ccc(F)cc1,3%
22,O=C(NC(=S)Nc1nc(-c2ccccc2)cs1)c1ccccc1Cl,8.4%

row,SMILES,displacement
1,COc1ccc(NC(NC(=O)c2ccco2)C(=O)c2ccccc2)cc1 (centres undefined),13.2%
2,Cc1ccc(OCC(=O)Nc2ccc(-c3nc4ccccc4o3)cc2)cc1C,-10.9%
3,Brc1cccc(CN2CCN(C3CCCC3)CC2)c1,-15.8%
4,Cc1cc(=O)n2c([nH]c3ccccc32)c1C(=O)O,14.1%
5,CC1=CC(C)C2(CO)COC(c3ccc4c(c3)OCO4)C1C2C (centres undefined),5.7%
6,Cc1ccc(Cc2ccccc2C(=O)O)cc1Cl,6.3%
7,O=C(N/N=C/c1cccs1)c1cc(-c2ccc(Cl)cc2)n[nH]1,0.8%
8,CC(C)(O)C#Cc1ccc(C(=O)NCc2ccccc2)cc1,-2.3%
9,CC(Oc1cccc(Cl)c1)C(=O)Nc1ccccc1C(=O)N1CCCCCC1 (centres undefined),-3.8%
10,CCCC(C)NS(=O)(=O)c1c(C)cc(C)cc1C (centres undefined),13.2%
11,CC1=C(C(=O)c2ccccc2)C(c2ccccc2)NC(=O)N1 (centres undefined),32.7%
12,COc1cc(OC)cc(C(=O)N2CCN(Cc3ccncc3)CC2)c1,2.3%
13,COc1ccc(NC(=O)C2CCCN(CCCc3ccccc3)C2)cc1OC1CCCC1 (centres undefined),-6%
14,O=C(/C=C/c1ccco1)Nc1ccc(Br)cn1,11.4%
15,O=S(=O)(Nc1nc2ccccc2nc1N1CCCCC1)c1ccccc1,15.9%
16,N#Cc1cc(C#N)c(SCC(=O)Nc2nccs2)nc1N,-4%
17,O=C(COc1ccccc1)N1CCN(C(=O)c2ccccc2F)CC1,-21.7%
18,CC(C)(C)c1cc(Br)ccc1OCC(=O)Nc1ccc2c(c1)OCCO2,4%
19,Cc1cccc2c(N=NC(=O)c3ccc(Br)cc3)c(O)n(C)c12,11.9%
20,COc1cc(C=C2C(=O)c3ccccc3C2=O)ccc1Oc1ccc([N+](=O)[O-])cn1,3.8%
21,CCN(CC)C(=O)c1sc(NC(=O)c2cc(Cl)ccc2OC)c(C#N)c1C,4.7%
